Data reported in PubChem BioAssay AID1745853 (National Center for Advancing Translational Sciences (NCATS), 2022).
Some of the results follow. These are further read-outs of the screen, such as a control signal, another cell line or another target. No call is given for them.

Assays:
Test in all cases: Primary Screen for Target Class Profiling of Small Molecule Inhibitors of Methyltransferases
[1] = target: Glycine N-methyltransferase (Homo sapiens) (UniProt Q14749); conditions: purified enzyme, MTase-Glo SAH luminescence; measured here: GNMT inhibition; at 40 µM; stronger effect = lower value
How it was run: (§1)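 Each enzyme was assayed with SAM and its substrate. SAH formation detected by MTase-Glo luminescence; single-point 40 uM screen[…].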

[2] = target: Guanidinoacetate N-methyltransferase (Homo sapiens) (UniProt Q14353); conditions: purified enzyme, MTase-Glo SAH luminescence; measured here: GAMT inhibition; at 40 µM; stronger effect = lower value
How it was run: as §1

[3] = target: Histamine N-methyltransferase (Homo sapiens) (UniProt P50135); conditions: purified enzyme, MTase-Glo SAH luminescence; measured here: HNMT inhibition; at 40 µM; stronger effect = lower value
How it was run: as §1

[4] = target: Nicotinamide N-methyltransferase (Homo sapiens) (UniProt P40261); conditions: purified enzyme, MTase-Glo SAH luminescence; measured here: NNMT inhibition; at 40 µM; stronger effect = lower value
How it was run: as §1

[5] = target: Phenylethanolamine N-methyltransferase (Homo sapiens) (UniProt P11086); conditions: purified enzyme, MTase-Glo SAH luminescence; measured here: PNMT inhibition; at 40 µM; stronger effect = lower value
How it was run: as §1
On the % scale 0 is the no-effect control and ±100 the full control effect.

Compound | activity change, negative = inhibition [1] | activity change, negative = inhibition [2] | activity change, negative = inhibition [3] | activity change, negative = inhibition [4] | activity change, negative = inhibition [5]
COc1cccc(C(=O)Cn2nc3n(CC(C)C)c(=O)c4ccc(C(=O)NC5CCCC5)cc4n3c2=O)c1 | 2.77% | 0.034% | 2.14% | 0.215% | -0.079%
CC1CCN(S(=O)(=O)c2ccc3c(ccn3CC(=O)NC(C)c3ccccc3)c2)CC1 (stereo not given) | -0.498% | 3.71% | -2.81% | 1.18% | 0.09%
CC(C)Cn1nc(C(=O)O)c2c1CCN(C(=O)CC(C)c1ccccc1)C2 (stereo not given) | -8.09% | -3% | -1.7% | -4.86% | 10.1%
CCOc1ccc(CCNC(=O)Cn2ccc3cc(S(=O)(=O)N4CCCC4)ccc32)cc1 | 4.56% | 4.39% | 8.83% | 4.06% | 3.44%
Cc1[nH]c2ccccc2c1CCNC(=O)c1cccs1 | -5.29% | -24.4% | 4.5% | -35.3% | -7.87%
CC(=O)Nc1c2n(c3ccc(F)cc13)CC(C)(C(=O)NC1CCCC1)N(C1CCCCCC1)C2=O (stereo not given) | -1.45% | 0.449% | -0.844% | -6.17% | -8.77%
COc1ccc(OC)c(NC(=O)N2CCn3cccc3C2C)c1 (stereo not given) | -14.3% | -2.15% | -14.8% | -23.4% | -16.1%
COc1ccc(-c2nnc3n(Cc4ccc(C)cc4)c(=O)c4ccccc4n23)cc1OC | -1.12% | 4.7% | 3.24% | 7.67% | 0.215%
O=c1[nH]ccc2cc(OC3CCNCC3)ccc12 | 2.88% | 1.64% | -14.7% | -10.6% | -2.58%
NC1CCCCN(C(=O)c2ccc(Cn3cccn3)o2)C1 (stereo not given) | -3.82% | -10.6% | -5.7% | -1.3% | -11%
COc1ccccc1C(=O)NC[C@@H]1C=C(C)[C@H](CC(=O)NCc2ccccn2)C[C@H]1C(C)C | -4.33% | 1.59% | -2.49% | -4.88% | 1.1%
CC1(C(=O)NC2CCCCCC2)Cn2c(cc3occc32)C(=O)N1c1cccc(Cl)c1 (stereo not given) | -4.74% | 1.65% | -7.31% | -3.89% | -2.24%
CC(=O)Nc1ccc(-c2nnc3n(Cc4ccc(F)cc4)c(=O)c4ccccc4n23)cc1 | -9.15% | 5.32% | 3.22% | 4.7% | 1.11%
CCOc1cc(CNC(=O)c2cc3n(n2)CC(C)(C(=O)NCc2ccccc2)N(C)C3=O)ccc1OC (stereo not given) | 0.043% | 3.76% | -0.971% | -2.19% | -0.123%
CCC(C)/C=C(C)/C=C/C1=CC2=C(Cl)C(=O)C(C)(OC(C)=O)C(=O)C2=CN1CCCC(=O)O (stereo not given) | 0% | 4.33% | 3.08% | -10.1% | 0.165%
CCC(C)NC(=O)c1ccc2c(=O)n(C(C)C)c3nn(CC(=O)NC4CCCCC4)c(=O)n3c2c1 (stereo not given) | 2.85% | 0% | 0.697% | 0.11% | 3.83%
O=C1CCC2(CCCO2)CCN1Cc1ccc(C(F)(F)F)c(F)c1 (stereo not given) | -1.04% | 2.22% | 3.58% | -3.09% | -16.6%
NS(=O)(=O)c1ccc(N2N=C(c3ccccc3)CC2c2ccccc2)cc1 (stereo not given) | 1.97% | -5.06% | 8.26% | -35.9% | -0.725%
CN1CCN(c2nc3c(c(=O)[nH]2)CCN(Cc2cccnc2)CC3)CC1 | -6.95% | -12.5% | -5.77% | -1.57% | -9.34%
CC1=C[C@@H](CNC(=O)COc2ccccc2)[C@H](C(C)C)C[C@H]1CC(=O)NCCN(C)C | -1.09% | 1.76% | -5.08% | -2.86% | -0.946%
CC(C)CCN1C(=O)c2cc3ccccc3n2CC1(C)C(=O)NC1CCCCC1 (stereo not given) | 0.947% | 2.31% | 4.57% | 6.14% | -0.463%
COC(=O)C1(O)C(OC(C)=O)CCC2C3(CC(c4ccoc4)OC3=O)C(C)=CCC21C(=O)OC (stereo not given) | 0.669% | 4.37% | 10.2% | -7.52% | 4.83%
CC1(C(=O)NC2CCCCCCC2)Cn2c(cc3occc32)C(=O)N1CCCN1CCCCC1 (stereo not given) | 1.38% | 6.05% | -4.47% | 4.89% | -1.05%
COc1ccc(S(=O)(=O)N2C[C@@H]3C[C@H](C2)c2c(NC(=O)c4ccccc4)ccc(=O)n2C3)cc1 | -6.09% | -4.65% | -10.1% | -13.3% | -1.8%
C=CC[C@@H]1CC=C[C@@H](C)N1C(=O)c1cc(OC)ccc1OC1CCN(C(=O)C2CC2)CC1 | -2.65% | -0.765% | -1.86% | -7.18% | 0.672%
CC1CC(C)CN(S(=O)(=O)c2ccc3c(c2)oc(=O)n3CC(=O)N(C)Cc2ccco2)C1 (stereo not given) | -5.26% | 0% | 6.92% | 5.94% | 0.834%
COc1ccc(Cn2c(=O)c3ccccc3n3c(-c4cccc(OC)c4)nnc23)cc1 | -12% | 2.81% | -4.7% | -7.02% | -4.98%
CC1(C(=O)Nc2ccccc2)CN(Cc2ccccc2)Cc2ccc(N3CCOCC3)nc21 (stereo not given) | -9.07% | -0.328% | -6.45% | -5.72% | -14.7%
CCOc1ccccc1CN1C(=O)c2cc3ccccc3n2CC1(C)C(=O)NCc1ccccc1OC (stereo not given) | -0.285% | 4.53% | 0.394% | 6.41% | -5.86%
Cc1nc2ccc(-n3ncc(C(=O)c4cc5ccccc5[nH]4)c3N)cc2[nH]1 | -19.4% | 1.91% | -4.35% | -15.8% | -12.4%
